Assay results published in the supplement of paper PMC5499739.
Whole data set: some 16,000 sequences, median “Z-score” near -0.37, cut for the highest 2% near 3.1. Some of the results follow.

What follows are sequences tested on RBM10 RRM1-ZnF-RRM2 (GST-tagged construct) (assay: RNAcompete 7-mer binding Z-score; higher = stronger binding preference).
Summary of the method: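 Each heptamer motif was given a one-sided Z-score for enrichment across the probes that contained it. GST-tagged RBM10 constructs (20 pmol) were combined with 1.5 nmol of a designed pool of 241 399 RNAs of up to 41 nt, transcribed from microarray-derived DNA templates. Binding took place in 1 ml Hepes pH 7.8 buffer containing KCl, NaCl, glycerol, DTT, BSA and glutathione Sepharose beads for 30 min at 4°C. After four 2-min washes at 4°C, bound RNA was identified by microarray hybridisation.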

Sequence | RNAcompete 7-mer binding Z-score
CUUCACC | -0.919
ACGGUGU | 0.825
GUGAGCG | 1.86
GUUGUAA | 0.155
GUGGACG | 2.32
CGUCCAA | -0.686
UGCAAUA | -0.0962
AUCAGUG | 0.665
UGUCUUC | -0.734
CUACUCA | -0.879
AUCAGCG | -0.125
CUGUUUU | -0.89
GGACGCA | 0.683
AGCAGGG | 3.39
GUGCAUG | 0.785
UCAGAUG | 0.115
CGGUCGC | -0.304
UGAGUGG | 2.63
CAGUAGC | -0.344
UCUUCUC | -0.821
AGAUAGA | 0.439
AAGCCUU | -1.05
UCAUUAG | -0.409

Sequence | RNAcompete 7-mer binding Z-score
GUCGCAU | -0.202
AUAGUCC | -0.624
GGAUCUU | -0.289
CAAAGGC | 0.345
ACGAGUG | 0.956
ACAGAUC | -0.508
CUGAGCG | 0.268
UCUGUUC | -0.795
UAGACCU | -0.741
CGAUACC | -0.457
GACCGCU | -0.919
UCAAUUC | -0.752
CUGGUAG | 0.232
UAACGAC | -0.602
AGAUCGC | -0.719
UUUACAG | -0.482
CUUAACC | -0.865
AUCGAGC | -0.449
AAUUUUG | -0.766
UGGGAGC | 2.67
CCAGGCG | 0.195
GCGGCUU | -0.511
CGCAAUC | -0.628

Sequence | RNAcompete 7-mer binding Z-score
AUGUUUG | -0.0634
UUGACAA | -0.486
GAAAGAC | 0.137
ACGUAAU | -0.417
UUAUAAU | -0.471
CAACCAC | -0.577
CAAGGCC | -0.235
UGACCUG | -0.694
ACUUCGA | -0.719
CUUUCCG | -0.777
AGUAUAG | 0.807
UAAUUUA | -0.723
GCUUAAG | -0.439
CAUCUUG | -0.872
AUCCGAU | -0.53
CUUGAGC | -0.978
AGCAUAC | -0.34
ACAGUUG | 0.075
UUCGGGU | 0.964
UCGAUCU | -0.653
CCUUUCU | -0.872
GGUCCAU | -0.315
AUUGAAU | 0.0604

Sequence | RNAcompete 7-mer binding Z-score
CGGAGGA | 1.75
AACCGGC | -0.428
UCGCGCA | -0.595
GGUGCCA | 0.785
GCAGUUA | -0.0853
CGGGUUC | 0.778
AAGAGGG | 3.05
CGGCGAA | 0.676
UGGGGAC | 2.28
UAAUUCG | -0.431
CGUCGCA | -0.541
GAUUCUC | -0.628
GUUAACU | -0.398
AUGGACG | 2.6
GAUGGCC | 0.0604
AGAAAUG | 1.32
AGAGAUC | -0.413
GUCAACC | -0.544
GUCAUCU | -0.719
UAGACUC | -0.726
CUUACCG | -0.726
UGCGCGU | -0.227
